PubChem BioAssay AID1508624 (National Center for Advancing Translational Sciences (NCATS), 2021)
Out of some 48,000 compounds screened, about 120 (0.25%) were called active. Not shown: some 4% with an inconclusive outcome. Calls come from the whole dose curve; as a rule, active = well fitted activation curve with a large enough effect; inconclusive = small, poorly fitted or top-dose-only effect, or another doubt; inactive = no such curve, though single readings can be large or run the other way. The list shows a part of the results.

Assay: Primary qHTS for Identification of Small Molecule Activators of Huntingtin-Antisense Promoter Activity; note: nearly all actives have a fitted effect of over 55% in size
Conditions: HEK293 HTT-AS promoter firefly luciferase reporter, 24 h; series mostly up to 57.5 µM; activity change, positive = activation: at the top concentration
In short: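 Quantitative HTS used concentration series of up to 57.5 uM final on HEK293 luciferase reporter cells, 24 h at 37 degrees C. Readout was Dual-Glo firefly luminescence.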

Activity change, positive = activation, inactive:
O=C(Cn1cnc(S(=O)(=O)N2CCCC2)c1)Nc1cccc(Br)c1 -17.1%, Cc1cc(-c2nc3ncccc3o2)ccc1NC(=O)c1ccccc1Br 23.5%, O=C(COc1ccc(F)cc1)NCC(c1ccc(Cl)cc1)N1CCCCC1 (configuration not stated) -21.7%, Cc1ccc(CCNC(=O)CCCn2c(=O)c3ccccc3n(Cc3ccccc3C)c2=O)cc1 -31.7%, COc1cc(OC)c(-c2cc(C(=O)NCc3ccc(F)cc3)c3c(-c4ccccc4)[nH]nc3n2)cc1OC -29.9%, COc1ccc(CCNC(=O)Cn2c(=O)n(-c3ccccc3)c(=O)c3c(C)c(C)sc32)cc1OC -9.65%, CC(=O)N1c2ccc(S(=O)(=O)N3CCCCCC3)cc2CC1C(=O)NCc1ccccc1C (configuration not stated) -4.72%, COCCCNC(=O)CCCn1c(SCC(=O)c2ccc(F)cc2)nc2c(sc3ccccc32)c1=O -18.9%, C#C[C@]1(O)CC[C@H]2[C@@H]3CCc4cc(O)ccc4[C@H]3CC[C@@]21C -21%, CCCCN(CCCC)CCC(O)c1cc2c(Cl)cc(Cl)cc2c2cc(C(F)(F)F)ccc12 (configuration not stated), COc1ccc(CNC(=O)CSc2ncc3c(n2)-c2ccc(Cl)cc2N(Cc2ccc(F)cc2)S3(=O)=O)cc1OC -0.721%, CCOC(=O)c1ccc(NC(=O)CSc2nnc3c4ccccc4n(CC)c3n2)cc1 -1.54%, COc1ccc(Cn2c(C(=O)O)c(CNCc3ccco3)c3ccc(OC)cc32)cc1 -28.7%, O=C(CSc1c2c(nc3ccccc13)CCC2)Nc1ccc(F)cc1 -17.1%, COc1ccc(-n2cnc3cc(C(=O)NC4CCCC4)ccc32)cc1 -12.3%, CC(C)(C)c1ccc(C(=O)NCC(c2ccco2)S(=O)(=O)c2ccc(F)cc2)cc1 (configuration not stated) -41.3%, CN(C)c1ccc(CNC(=O)c2ccc(Cn3c(=O)c4cccn4c4cccnc43)cc2)cc1 -17%, CCc1ccc2ncc(C(=O)c3ccc(C)c(C)c3)c(N3CCC(C(N)=O)CC3)c2c1 -8.84%, COc1cc2nc(-c3ccc(N4CCN(C)CC4)cc3)nc(NCCN3CCOCC3)c2cc1OC -41.2%, Cc1ccc(Cn2c(CNC(=O)CCc3ccccc3)nc3cccnc32)cc1 -17.5%, Cc1cccc(N2CCN(Cc3nnc(-c4ccccc4C)o3)CC2C)c1 (configuration not stated) 1.31%, COc1ccc(C2=Nc3ccc(F)cc3NC(c3cccc(C(F)(F)F)c3)=N2)cc1 -5.83%, CCCOc1ccc(C(=O)N(Cc2ccccc2Cl)C2CCS(=O)(=O)C2)cc1 (configuration not stated) -1.65%, COC(=O)c1ccccc1NC(=O)c1cnc(Nc2ccc(OC)cc2)c2ccccc12 -15.7%, CC1(C)CC(=O)c2cc(C#N)c(=O)n(-c3ccc(Cl)cc3)c2C1 13.8%, COc1ccc(NC(=O)Cn2cc(C(=O)c3ccccc3)c(=O)c3cc(OC)ccc32)c(OC)c1 -6.54%, O=C(O)CCC(=O)Nc1sc2c(c1C(=O)Nc1ccccc1)CCCCC2 -7.09%, CCc1ccc(NC(=O)c2ccc(F)c(S(=O)(=O)N3CCN(c4ccc(OC)cc4)CC3)c2)cc1 -39.4%, Cc1ccsc1CN(C(=O)c1ccc(OCC(C)C)cc1)C1CCS(=O)(=O)C1 (configuration not stated) -24.9%, Cc1ccc2oc(-c3cccc(NC(=O)Cc4ccc(Cl)cc4)c3)nc2c1 -4.19%, Cc1ccc(Sc2c(C)nn(C(=O)c3ccc(Cl)cc3)c2C)cc1 -8.63%, Cc1c(C(=O)OC(C)C)sc(NC(=O)C2c3ccccc3Oc3ccccc32)c1C(=O)OC(C)C -20.3%, CCOC(=O)c1c(S(=O)(=O)N2CCCC(C(=O)Nc3ccc(C)cn3)C2)c(C)n(C)c1C (configuration not stated) 7.46%, Cc1ccc(-n2c3nc(=O)[nH]c(=O)c-3cc3c(C)nn(-c4ccccc4)c32)cc1C -11.1%, COc1ccccc1CNC(=O)CCCN1C(=O)CSc2c1c(C)nn2-c1ccccc1 11.7%, COc1ccc(-n2nc(C(=O)N3CCN(c4ccccc4OC)CC3)c3c4ccccc4n(C)c3c2=O)cc1Cl -0.786%, CC(=O)N1CCOc2cc(S(=O)(=O)NCc3ccc(F)cc3)c(C)cc21 1.69%, O=C(Cn1c(=O)n(Cc2ccccc2)c(=O)c2sc3ccccc3c21)Nc1ccccc1F -11.1%, O=C(Nc1ccc2c(c1)CCCN2C(=O)c1cccs1)c1ccccc1 0%, O=C(NC1CCCc2ccccc21)c1ccc2c(c1)sc1nc(-c3ccccc3)cn12 (configuration not stated) 11.7%, CC(C)C1N=C2c3ccccc3N=C(SCC(=O)NCc3ccc(Cl)cc3)N2C1=O (configuration not stated) -4.83%, CCOc1ccccc1NC(=O)C1CCN(S(=O)(=O)c2cccs2)CC1 -19.1%, CC(CNC(=O)CCc1cn(Cc2ccccc2Cl)c2ccccc12)c1ccccc1 (configuration not stated) -19.6%, COc1cccc(Oc2nc(C)nc3c2oc2ccccc23)c1 -16.5%, Cc1c(C(=O)NCc2cccc(Cl)c2)sc2nc[nH]c(=O)c12 -18.9%, CCOc1ccc(NC(=O)Cn2ccn3nc(-c4ccc(OC)c(OC)c4)cc3c2=O)cc1 28.2%, Cc1cc(C)cc(NC(=O)Nc2ccc3nc(N4CCN(C)CC4)cc(C)c3c2)c1 -18.2%, COc1cc(F)c(F)c(Nc2ccc(I)cc2F)c1NS(=O)(=O)C1(C[C@H](O)CO)CC1 -11.9%, CCCS(=O)(=O)c1nc(S(=O)(=O)c2ccc(C)cc2)c(NCc2ccccc2Cl)s1 -17.4%, Cc1nc(N2CCCC2)c2c(C(=O)Nc3cccc(Cl)c3)c(C)oc2n1 -16.6%, COc1ccc(C2=C(C)C(N3CCC(C(=O)Nc4ccc(F)cc4C)CC3)=NS2(=O)=O)cc1 -11.7%, O=C(Nc1ccc(Cl)c(C(F)(F)F)c1)C(Cc1ccccc1)NS(=O)(=O)c1ccc(Br)s1 (configuration not stated) -7.1%, CCOc1ccc(NC(=O)C(=O)NCc2ccco2)cc1 15.6%, O=C(NCc1ccccc1)C(=O)NCC(c1cccs1)S(=O)(=O)c1ccccc1 (configuration not stated) -27.3%, CC1(C)CC(=O)c2cc(C(=O)Nc3ccccc3Cl)c(=O)n(-c3ccc(Cl)cc3)c2C1 0%, COc1ccc2cc3cc(C(=O)NCc4ccccc4OC)oc3nc2c1 -17.8%, Cc1cccc(NC(=O)CSc2nc3ccccc3nc2N2CCOCC2)c1C 6.1%, CC(=O)c1ccc(N2CCN(C(=O)CCCCn3c(=O)[nH]c4ccsc4c3=O)CC2)cc1 -21.4%, CCOc1ccc(CNS(=O)(=O)c2cc3c(cc2C)NC(=O)CO3)cc1 -29.7%, CCSc1nnc(NC(=O)c2cc(=O)c3cc(C)c(C)cc3o2)s1 5.61%, O=C(Nc1cccc(C(F)(F)F)c1)c1cc(-c2ccc3c(c2)OCCO3)on1 -8.36%, CCc1cnc2c(c1SCC(=O)c1ccc(Cl)cc1)c(=O)n(C)c(=O)n2C -11.6%, COc1ccc(Cn2c(=O)c3cccnc3n(CC(=O)Nc3c(C)cc(C)cc3C)c2=O)cc1 -2.63%, CCOC(=O)c1c(-c2ccc(OC)cc2)oc2ccc(OCc3ccc(Br)cc3)cc12 13.9% [at 11.5 µM, percent change from vehicle, -100% = no light], O=C(NCCc1ccc(F)cc1)C(=O)NCC(c1ccco1)S(=O)(=O)c1cccs1 (configuration not stated) -7.48%, CCc1ccccc1NC(=O)c1ccc2nc(C(C)C)oc2c1 -23.7%, Cc1ccc(N(CC(=O)Nc2ccc(Br)cc2)S(=O)(=O)c2cccs2)cc1 -7.17%, COc1ccc(S(=O)(=O)n2nc(C)c(S(=O)(=O)N3CCC(C)CC3)c2C)cc1OC -9.77%, O=C(Nc1nnc2n1CCS2)c1ccccc1C(F)(F)F -7.4%, CC(C)CCNC(=O)CCC(=O)NNc1nc2ccccc2c2nc(-c3ccccc3)nn12 -12.9%, COc1cc(OC)cc(C(=O)N2CC(=O)Nc3ccc(Cl)cc3C2c2ccccc2)c1 (configuration not stated) 15.1%, COc1ccc(CCNC(=O)c2ccc(Cn3c(=O)c4ccccc4n(Cc4cccc(Cl)c4)c3=O)cc2)cc1OC -31.8%, CCOc1ccccc1NC(=O)C(CC)Sc1nc2ccncc2[nH]1 (configuration not stated) -22.5%, COc1ccc(NCc2cc3cc4c(cc3n(CC(=O)Nc3cc(C)ccc3C)c2=O)OCCO4)cc1 25.8%, CC(C)c1ccc(NS(=O)(=O)c2ccc3nc(-c4ccccc4)[nH]c3c2)cc1 -18.1%, Cc1nn2c(=O)cc(COC(=O)c3ccccc3NC(=O)C(C)Oc3ccccc3)nc2s1 (configuration not stated) -3.2%, CCOc1ccc(CN2CCc3nc(Nc4ccc5c(c4)OCCO5)ncc3C2)cc1 11.7%, Cc1ccc(-n2c(=O)c3ccc(C(=O)NCc4ccco4)cc3n(Cc3ccccc3C#N)c2=O)cc1 -12.5%, Cn1c(=O)c2cc(C(=O)NCCCN3CCN(c4ccccc4F)CC3)sc2c2ccccc21 -8.58%, Cc1ccc(NC(=O)Cn2c(=O)n(Cc3ccco3)c(=O)c3ccccc32)c(C)c1 -16%, CCN(CC)c1cc2c(cc1F)c(=O)c(S(=O)(=O)c1cccc(C)c1)cn2C -3.29%, CCOc1ccc(C2CC(=O)N(c3cccc(F)c3)C3=C2C(=O)OC3)cc1 (configuration not stated) 15.9%, Cc1ccc(-n2nc3c(=O)n(CCCC(=O)NCCc4ccccc4Cl)nc(C)c3c2C)cc1 -14.9%, Cc1cccc(NC(=O)CSc2nc(-c3ccco3)cc(C(F)(F)F)n2)c1C -17.3%, Cc1cccc(N2CCN(S(=O)(=O)c3csc(C(N)=O)c3)CC2)c1C -57.1%, Cc1ccc(N(Cc2cccs2)C(=O)c2ccccc2Cl)cc1 -24.6%, CCOC(=O)c1ccc(NC(=O)c2cc3sccc3n2Cc2ccc(Cl)cc2)cc1 -33.4%, O=C(c1ccccc1Cl)N1CCCCC1CCN1CCCCC1 (configuration not stated) -10%, COc1ccc(NC(=O)C(C)N(c2ccccc2)S(C)(=O)=O)cc1 (configuration not stated) 19% [at 11.5 µM, percent change from vehicle, -100% = no light], COc1ccc(C)cc1NC(=O)Cn1c(=O)n(Cc2nc(C)no2)c(=O)c2ccccc21 -11.9%, CN(C)c1ccc(CN(CC2CCCO2)C(=O)COc2ccccc2Cl)cc1 (configuration not stated) -33.3%, COc1ccccc1CNC(=O)Cc1c(C)c2c(cc(C)c3c(C)coc32)oc1=O -6.03%
